For 20 molecules, binding signal results are on record in article PMC9911399, “Two distinct binding modes provide the RNA-binding protein RbFox with extraordinary sequence specificity”.

Where a chain is given by its changes, count along the chain named. This is one part of the list.

T1: RBFOX1 RRM RbFoxmut (Fox-RRM*) (Homo sapiens, UniProt Q9NWB1 109-208, R118D;E147R;N151S;E152T)
T1 sequence: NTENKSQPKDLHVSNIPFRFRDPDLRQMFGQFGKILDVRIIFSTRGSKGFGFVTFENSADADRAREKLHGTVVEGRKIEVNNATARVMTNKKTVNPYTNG

B1: GCAGUAU (DNA:RNA)
RNA: GGGAGACCGGAAUUCAGAUUGUCCGCAGUAUUUAAAUCCCGUCGUAGCCACCA
DNA 1: CAATCTGAATTCCGGTCTCCC
DNA 2: TGGTGGCTACGACGGGATT
B2: AUUGGAU (DNA:RNA)
RNA: B1 RNA with G25A, C26U, A27U, U29G
DNA 1: CAATCTGAATTCCGGTCTCCC
DNA 2: TGGTGGCTACGACGGGATT
B3: UCUACAG (DNA:RNA)
RNA: B1 RNA with G25U, A27U, G28A, U29C, U31G
DNA 1: CAATCTGAATTCCGGTCTCCC
DNA 2: TGGTGGCTACGACGGGATT
B4: GACGGGU (DNA:RNA)
RNA: B1 RNA with C26A, A27C, U29G, A30G
DNA 1: CAATCTGAATTCCGGTCTCCC
DNA 2: TGGTGGCTACGACGGGATT
B5: GGGAUGU (DNA:RNA)
RNA: B1 RNA with C26G, A27G, G28A, A30G
DNA 1: CAATCTGAATTCCGGTCTCCC
DNA 2: TGGTGGCTACGACGGGATT
B6: CGAUCUU (DNA:RNA)
RNA: B1 RNA with G25C, C26G, G28U, U29C, A30U
DNA 1: CAATCTGAATTCCGGTCTCCC
DNA 2: TGGTGGCTACGACGGGATT
B7: UUAGGCA (DNA:RNA)
RNA: B1 RNA with G25U, C26U, U29G, A30C, U31A
DNA 1: CAATCTGAATTCCGGTCTCCC
DNA 2: TGGTGGCTACGACGGGATT
B8: CACCGUG (DNA:RNA)
RNA: GGGAGACCGGAAUUCAGAUUGUCCCACCGUGUUAAAUCCCGUCGUAGCCACCA
DNA 1: CAATCTGAATTCCGGTCTCCC
DNA 2: TGGTGGCTACGACGGGATT
B9: UUCGGAC (DNA:RNA)
RNA: B8 RNA with C25U, A26U, C28G, U30A, G31C
DNA 1: CAATCTGAATTCCGGTCTCCC
DNA 2: TGGTGGCTACGACGGGATT
B10: CCUACCU (DNA:RNA)
RNA: B1 RNA with G25C, A27U, G28A, U29C, A30C
DNA 1: CAATCTGAATTCCGGTCTCCC
DNA 2: TGGTGGCTACGACGGGATT
B11: CCCGCGG (DNA:RNA)
RNA: B8 RNA with A26C, C28G, G29C, U30G
DNA 1: CAATCTGAATTCCGGTCTCCC
DNA 2: TGGTGGCTACGACGGGATT
B12: CGGCCGC (DNA:RNA)
RNA: B8 RNA with A26G, C27G, G29C, U30G, G31C
DNA 1: CAATCTGAATTCCGGTCTCCC
DNA 2: TGGTGGCTACGACGGGATT
B13: GGGAACU (DNA:RNA)
RNA: B1 RNA with C26G, A27G, G28A, U29A, A30C
DNA 1: CAATCTGAATTCCGGTCTCCC
DNA 2: TGGTGGCTACGACGGGATT
B14: AAAUCUG (DNA:RNA)
RNA: B8 RNA with C25A, C27A, C28U, G29C
DNA 1: CAATCTGAATTCCGGTCTCCC
DNA 2: TGGTGGCTACGACGGGATT
B15: AUCCAGC (DNA:RNA)
RNA: B8 RNA with C25A, A26U, G29A, U30G, G31C
DNA 1: CAATCTGAATTCCGGTCTCCC
DNA 2: TGGTGGCTACGACGGGATT
B16: CGUAUGG (DNA:RNA)
RNA: B8 RNA with A26G, C27U, C28A, G29U, U30G
DNA 1: CAATCTGAATTCCGGTCTCCC
DNA 2: TGGTGGCTACGACGGGATT
B17: CAUGUCU (DNA:RNA)
RNA: B1 RNA with G25C, C26A, A27U, A30C
DNA 1: CAATCTGAATTCCGGTCTCCC
DNA 2: TGGTGGCTACGACGGGATT
B18: GCGUUUG (DNA:RNA)
RNA: B1 RNA with A27G, G28U, A30U, U31G
DNA 1: CAATCTGAATTCCGGTCTCCC
DNA 2: TGGTGGCTACGACGGGATT
B19: CACUUGA (DNA:RNA)
RNA: B8 RNA with C28U, G29U, U30G, G31A
DNA 1: CAATCTGAATTCCGGTCTCCC
DNA 2: TGGTGGCTACGACGGGATT
B20: UGCCUAG (DNA:RNA)
RNA: B8 RNA with C25U, A26G, G29U, U30A
DNA 1: CAATCTGAATTCCGGTCTCCC
DNA 2: TGGTGGCTACGACGGGATT

The target of this experiment is T1, RBFOX1 RRM RbFoxmut (Fox-RRM*). Nature of the experiment: EMSA; HiTS-Eq, 1 nM pool, 10 min; buffer printed only for the single-RNA assays: 10 mM Tris pH 7.5, 150 mM NaCl, 3.4 mM EDTA, 0.001% NP-40, 30 C. The settings on record: tags: His6 N-terminal (pET28a); label: 5' 32P. Summed up: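 These values rest on relative association constants, computed from read-count changes of each RNA species versus the control reaction and normalised to the cognate motif. Reads came from free RNA recovered by 8% native PAGE after purified RbFox RRM (wild type or mutant) at increasing concentrations was equilibrated for 10 min in 50 µL with 1 nM of a 5′-radiolabelled pool with 7 randomized nucleotides and DNA-annealed flanks.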
On the technique in general: Mobility shift assays separate free from complexed probe on a gel.
Turning to B1, the binding signal is 0.0922 KA relative to UGCAUGU.

As for B2, the binding signal was 0.0952 KA relative to UGCAUGU.

For B3, the binding signal was 0.102 KA relative to UGCAUGU.

For the molecule B4, the binding signal was 0.0571 KA relative to UGCAUGU.

Regarding B5, the binding signal is 0.373 KA relative to UGCAUGU.

For B6, the binding signal is 0.0485 KA relative to UGCAUGU.

For B7, the binding signal is 0.106 KA relative to UGCAUGU.

With B8, the binding signal is 0.12 KA relative to UGCAUGU.

Take B9: the binding signal was 0.0541 KA relative to UGCAUGU.

Consider B10, for which the binding signal was 0.0689 KA relative to UGCAUGU.

Regarding B11, the binding signal is 0.0826 KA relative to UGCAUGU.

As for B12, the binding signal was 0.0688 KA relative to UGCAUGU.

Turning to B13, the binding signal was 0.0624 KA relative to UGCAUGU.

Take B14: the binding signal was 0.0533 KA relative to UGCAUGU.

For the molecule B15, the binding signal is 0.124 KA relative to UGCAUGU.

Take B16: the binding signal is 0.261 KA relative to UGCAUGU.

As to B17, the binding signal was 0.103 KA relative to UGCAUGU.

For B18, the binding signal was 0.403 KA relative to UGCAUGU.

Regarding B19, the binding signal is 0.114 KA relative to UGCAUGU.

Turning to B20, the binding signal is 0.105 KA relative to UGCAUGU.
